# Patent US20230250147A1, “GLP-1R AGONISTIC PEPTIDES WITH REDUCED ACTIVITY” (SANOFI, priority 2020, published 2023)
# T1: Mouse GLP-1R (Mus musculus, UniProt O35659)
# T1 construct: expressed in transfected cells; host or cells: HEK-293
# T1 sequence (O35659 22-463): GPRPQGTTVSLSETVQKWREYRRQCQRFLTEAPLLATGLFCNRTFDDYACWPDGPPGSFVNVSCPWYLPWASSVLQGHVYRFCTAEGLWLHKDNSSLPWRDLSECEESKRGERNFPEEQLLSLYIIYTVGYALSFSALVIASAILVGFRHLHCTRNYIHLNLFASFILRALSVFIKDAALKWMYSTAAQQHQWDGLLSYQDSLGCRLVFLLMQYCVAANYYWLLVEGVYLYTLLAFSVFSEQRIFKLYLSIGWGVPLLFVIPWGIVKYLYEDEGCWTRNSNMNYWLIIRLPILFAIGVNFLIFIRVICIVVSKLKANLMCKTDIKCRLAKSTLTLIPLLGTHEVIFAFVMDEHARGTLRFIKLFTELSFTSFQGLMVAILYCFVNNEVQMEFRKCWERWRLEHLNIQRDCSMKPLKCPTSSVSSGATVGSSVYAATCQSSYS
# B1: 57 (protein)
# chain: YGEGTFTSDKSQLLEKRLAHLFIEWLIAGGHSSGKPPPKGGGGGGGSGGGGSGGGGSA[… human IgG4 Fc with changes …]GGGSGSAHPIPDSSPLLQFGGQVRQRYLYTDDACQTEAHLEIREDGTVGGAADQSPESLLQLKALKPGVIQILGVKTSRFLCQRPDGALYGSLHFDPEACSFRELLLEDGYNVYQSEAHGLPLHLPGCKSPHRDPAPRGPARFLPLPGLPPAPPEPPGILAPQPPDVGSSDPLSMVGSQGRSPSYAS
# modifications: Fusion Protein
# B2: 63 (protein)
# chain: YGEGTFTSDKSKQLEKRLAHLFIEWLIKGGHSSGKPPPKGGGGGGGSGGGGSGGGGSA[… human IgG4 Fc with changes …]GGGSGSAHPIPDSSPLLQFGGQVRQRYLYTDDACQTEAHLEIREDGTVGGAADQSPESLLQLKALKPGVIQILGVKTSRFLCQRPDGALYGSLHFDPEACSFRELLLEDGYNVYQSEAHGLPLHLPGCKSPHRDPAPRGPARFLPLPGLPPAPPEPPGILAPQPPDVGSSDPLSMVGSQGRSPSYAS
# modifications: Fusion Protein
# B3: 64 (protein)
# chain: HTEGTFTSDKSKQLEKRLVRLFIEWLIKGGHSSGKPPPKGGGGGGGSGGGGSGGGGSA[… human IgG4 Fc with changes …]GGGSGSAHPIPDSSPLLQFGGQVRQRYLYTDDACQTEAHLEIREDGTVGGAADQSPESLLQLKALKPGVIQILGVKTSRFLCQRPDGALYGSLHFDPEACSFRELLLEDGYNVYQSEAHGLPLHLPGCKSPHRDPAPRGPARFLPLPGLPPAPPEPPGILAPQPPDVGSSDPLSMVGSQGRSPSYAS
# modifications: Fusion Protein
# B4: 58 (protein)
# chain: YGEGTFTSDKSKLLEKRLVRLFIEWLIAGGHSSGKPPPKGGGGGGGSGGGGSGGGGSA[… human IgG4 Fc with changes …]GGGSGSAHPIPDSSPLLQFGGQVRQRYLYTDDACQTEAHLEIREDGTVGGAADQSPESLLQLKALKPGVIQILGVKTSRFLCQRPDGALYGSLHFDPEACSFRELLLEDGYNVYQSEAHGLPLHLPGCKSPHRDPAPRGPARFLPLPGLPPAPPEPPGILAPQPPDVGSSDPLSMVGSQGRSPSYAS
# modifications: Fusion Protein
# B5: 61 (protein)
# chain: YGEGTFTSDKSKQLEKRLAHLFIEWLIAGGHSSGKPPPKGGGGGGGSGGGGSGGGGSA[… human IgG4 Fc with changes …]GGGSGSAHPIPDSSPLLQFGGQVRQRYLYTDDACQTEAHLEIREDGTVGGAADQSPESLLQLKALKPGVIQILGVKTSRFLCQRPDGALYGSLHFDPEACSFRELLLEDGYNVYQSEAHGLPLHLPGCKSPHRDPAPRGPARFLPLPGLPPAPPEPPGILAPQPPDVGSSDPLSMVGSQGRSPSYAS
# modifications: Fusion Protein
# B6: 65 (protein)
# chain: HGEGTFTSDKSKQLAKRLVRLFIEWLIKGGHSSGKPPPKGGGGGGGSGGGGSGGGGSA[… human IgG4 Fc with changes …]GGGSGSAHPIPDSSPLLQFGGQVRQRYLYTDDACQTEAHLEIREDGTVGGAADQSPESLLQLKALKPGVIQILGVKTSRFLCQRPDGALYGSLHFDPEACSFRELLLEDGYNVYQSEAHGLPLHLPGCKSPHRDPAPRGPARFLPLPGLPPAPPEPPGILAPQPPDVGSSDPLSMVGSQGRSPSYAS
# modifications: Fusion Protein
# B7: 62 (protein)
# chain: YGEGTFTSDKSKQLEKRLVRLFIEWLIKGGHSSGKPPPKGGGGGGGSGGGGSGGGGSA[… human IgG4 Fc with changes …]GGGSGSAHPIPDSSPLLQFGGQVRQRYLYTDDACQTEAHLEIREDGTVGGAADQSPESLLQLKALKPGVIQILGVKTSRFLCQRPDGALYGSLHFDPEACSFRELLLEDGYNVYQSEAHGLPLHLPGCKSPHRDPAPRGPARFLPLPGLPPAPPEPPGILAPQPPDVGSSDPLSMVGSQGRSPSYAS
# modifications: Fusion Protein
# B8: 60 (protein)
# chain: YGEGTFTSDKSKQLEKRLVRLFIEWLIAGGHSSGKPPPKGGGGGGGSGGGGSGGGGSA[… human IgG4 Fc with changes …]GGGSGSAHPIPDSSPLLQFGGQVRQRYLYTDDACQTEAHLEIREDGTVGGAADQSPESLLQLKALKPGVIQILGVKTSRFLCQRPDGALYGSLHFDPEACSFRELLLEDGYNVYQSEAHGLPLHLPGCKSPHRDPAPRGPARFLPLPGLPPAPPEPPGILAPQPPDVGSSDPLSMVGSQGRSPSYAS
# modifications: Fusion Protein
# B9: 59 (protein)
# chain: YGEGTFTSDKSKLLEKRLAHLFIEWLIAGGHSSGKPPPKGGGGGGGSGGGGSGGGGSA[… human IgG4 Fc with changes …]GGGSGSAHPIPDSSPLLQFGGQVRQRYLYTDDACQTEAHLEIREDGTVGGAADQSPESLLQLKALKPGVIQILGVKTSRFLCQRPDGALYGSLHFDPEACSFRELLLEDGYNVYQSEAHGLPLHLPGCKSPHRDPAPRGPARFLPLPGLPPAPPEPPGILAPQPPDVGSSDPLSMVGSQGRSPSYAS
# modifications: Fusion Protein
# B10: 55 (protein)
# chain: GHGEGTFTSDKSIQLEEEAVRLFIEWLLAGGHPSGKPPPKGGGGGGGSGGGGSGGGGSA[… human IgG4 Fc with changes …]GGGSGSAHPIPDSSPLLQFGGQVRQRYLYTDDACQTEAHLEIREDGTVGGAADQSPESLLQLKALKPGVIQILGVKTSRFLCQRPDGALYGSLHFDPEACSFRELLLEDGYNVYQSEAHGLPLHLPGCKSPHRDPAPRGPARFLPLPGLPPAPPEPPGILAPQPPDVGSSDPLSMVGSQGRSPSYAS
# modifications: Fusion Protein
# B11: 56 (protein)
# chain: AHGEGTFTSDKSIQLEKEAVRLFIEWLLAGGHPSGKPPPKGGGGGGGSGGGGSGGGGSA[… human IgG4 Fc with changes …]GGGSGSAHPIPDSSPLLQFGGQVRQRYLYTDDACQTEAHLEIREDGTVGGAADQSPESLLQLKALKPGVIQILGVKTSRFLCQRPDGALYGSLHFDPEACSFRELLLEDGYNVYQSEAHGLPLHLPGCKSPHRDPAPRGPARFLPLPGLPPAPPEPPGILAPQPPDVGSSDPLSMVGSQGRSPSYAS
# modifications: Fusion Protein
# B12: 66 (protein)
# chain: GHGEGTFTSDKSKQLEEEAVRLFIEWLKAGGPKKQRLSGGGGGGGSGGGGSGGGGSA[… human IgG4 Fc with changes …]GGGSGSAHPIPDSSPLLQFGGQVRQRYLYTDDACQTEAHLEIREDGTVGGAADQSPESLLQLKALKPGVIQILGVKTSRFLCQRPDGALYGSLHFDPEACSFRELLLEDGYNVYQSEAHGLPLHLPGCKSPHRDPAPRGPARFLPLPGLPPAPPEPPGILAPQPPDVGSSDPLSMVGSQGRSPSYAS
# modifications: Fusion Protein
# Molecular target: T1, Mouse GLP-1R
# Assay: HTRF cAMP assay in HEK-293 cells, mouse GLP-1R
# Type: cell-based
row,EC50,Molecule
1,19.3 pM,B1
2,54.3 pM,B2
3,6.08 pM,B3
4,7.19 pM,B4
5,43 pM,B5
6,6.63 pM,B6
7,13.4 pM,B7
8,11.7 pM,B8
9,13.5 pM,B9
10,596 pM,B10
11,66.7 pM,B11
12,11 pM,B12

# Molecular target: T2, Monkey GLP-1R (Macaca fascicularis, UniProt F8V479)
# T2 construct: expressed in transfected cells; host or cells: HEK-293
# T2 sequence (F8V479 24-463): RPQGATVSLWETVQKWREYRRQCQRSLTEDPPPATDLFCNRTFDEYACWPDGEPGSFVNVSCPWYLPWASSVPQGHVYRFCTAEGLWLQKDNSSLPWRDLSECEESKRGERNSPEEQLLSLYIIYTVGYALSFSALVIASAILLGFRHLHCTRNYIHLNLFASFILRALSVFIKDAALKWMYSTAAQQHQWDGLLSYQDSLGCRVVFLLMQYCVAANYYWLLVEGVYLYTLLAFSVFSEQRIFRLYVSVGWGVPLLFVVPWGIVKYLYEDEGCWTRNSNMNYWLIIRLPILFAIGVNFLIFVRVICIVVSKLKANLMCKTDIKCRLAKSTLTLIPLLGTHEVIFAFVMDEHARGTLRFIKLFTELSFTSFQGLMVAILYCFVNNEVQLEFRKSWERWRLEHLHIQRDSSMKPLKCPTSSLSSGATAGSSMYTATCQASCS
# Assay: HTRF cAMP assay in HEK-293 cells, monkey GLP-1R
# Type: cell-based
row,EC50,Molecule
1,15.7 pM,B1
2,52.6 pM,B2
3,7.47 pM,B3
4,5.76 pM,B4
5,40.2 pM,B5
6,10.2 pM,B6
7,12.9 pM,B7
8,13 pM,B8
9,10.3 pM,B9
10,157 pM,B10
11,11.5 pM,B11
12,31.4 pM,B12

# Molecular target: T3, Human GLP-1R (Homo sapiens, UniProt P43220)
# T3 construct: expressed in transfected cells; host or cells: HEK-293
# T3 sequence (P43220 24-463): as the sequence (F8V479 24-463) above, with N112S, S120F, G202S, V205L, F237L, R241W, V249I counted along it
# Assay: HTRF cAMP assay in HEK-293 cells, human GLP-1R
# Type: cell-based
row,EC50,Molecule
1,21.1 pM,B1
2,95.4 pM,B2
3,9.09 pM,B3
4,9.38 pM,B4
5,68.3 pM,B5
6,16.5 pM,B6
7,20.3 pM,B7
8,22.5 pM,B8
9,13.6 pM,B9
10,261 pM,B10
11,15 pM,B11
12,33.8 pM,B12
